Reference: the supplement of paper PMC4604168 (melanoma cell lines)
This is one part of the list. Single values are uncertain, as repeats are few or missing.

System: WM3619
Assay: cell count relative to DMSO control; melanoma cells; higher = more viable cells
Settings: library dose: low library concentration; 72 h
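Also: cell number obtained by counting DAPI-stained nuclei in high-throughput microscope images with image analysis software, screen run in 1,536-well plates.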

Row | Compound | cell count [%]
1 | Nc1nc(F)nc2c1ncn2[C@@H]1O[C@H](CO)[C@@H](O)[C@@H]1O [fludarabine] + COCC[n+]1c2c(n(Cc3cnccn3)c1C)C(=O)c1ccccc1C2=O [YM155] (first compound 0.2 µM, partner dose 0.0004 µM) | 81.9
2 | CO[C@H]1C[C@@H]2CC[C@@H](C)[C@@](O)(O2)C(=O)C(=O)N2CCCC[C@H]2C(=O)O[C@H]([C@H](C)C[C@@H]2CC[C@@H](OCCO)[C@H](OC)C2)CC(=O)[C@H](C)/C=C(\C)[C@@H](O)[C@@H](OC)C(=O)[C@H](C)C[C@H](C)/C=C/C=C/C=C/1C [everolimus] + c1cc(-c2cnn3cc(-c4ccc(OCCN5CCCCC5)cc4)cnc23)ccn1 [Dorsomorphin] (first compound 0.02 µM, partner dose 0.4 µM) | 93.1
3 | CC(=O)c1c(C)c2cnc(Nc3ccc(N4CCNCC4)cn3)nc2n(C2CCCC2)c1=O [palbociclib] + Cn1c(Nc2ccc(C(F)(F)F)cc2)nc2cc(Oc3ccnc(-c4ncc(C(F)(F)F)[nH]4)c3)ccc21 [CHIR265] (first compound 0.04 µM, partner dose 0.08 µM) | 66
4 | CC(=O)O[C@@]12CO[C@@H]1C[C@H](O)[C@@]1(C)C(=O)[C@H](O)C3=C(C)[C@@H](OC(=O)[C@H](O)[C@@H](NC(=O)OC(C)(C)C)c4ccccc4)C[C@@](O)([C@@H](OC(=O)c4ccccc4)[C@H]21)C3(C)C [Docetaxel] + NCC(=O)Nc1ccc(-n2nc(C(F)(F)F)cc2-c2ccc3c(ccc4ccccc43)c2)cc1 [OSU03012] (first compound 0.0001 µM, partner dose 1 µM) | 69.6
5 | CC(=O)O[C@@]12CO[C@@H]1C[C@H](O)[C@@]1(C)C(=O)[C@H](O)C3=C(C)[C@@H](OC(=O)[C@H](O)[C@@H](NC(=O)OC(C)(C)C)c4ccccc4)C[C@@](O)([C@@H](OC(=O)c4ccccc4)[C@H]21)C3(C)C [Docetaxel] + CC(=O)c1c(C)c2cnc(Nc3ccc(N4CCNCC4)cn3)nc2n(C2CCCC2)c1=O [palbociclib] (first compound 0.0001 µM, partner dose 0.04 µM) | 60.1
6 | CC(=O)c1c(C)c2cnc(Nc3ccc(N4CCNCC4)cn3)nc2n(C2CCCC2)c1=O [palbociclib] + O=S(=O)(c1ccccc1)N(CC(F)(F)F)c1ccc(C(O)(C(F)(F)F)C(F)(F)F)cc1 [T0901317] (first compound 0.04 µM, partner dose 1.4 µM) | 76.1
7 | Nc1ccn([C@@H]2O[C@H](CO)[C@@H](O)C2(F)F)c(=O)n1 [gemcitabine] + Nc1nc(F)nc2c1ncn2[C@@H]1O[C@H](CO)[C@@H](O)[C@@H]1O [fludarabine] (first compound 0.0004 µM, partner dose 0.2 µM) | 49.6
8 | Nc1ncn([C@H]2C[C@H](O)[C@@H](CO)O2)c(=O)n1 [decitabine] + COc1cc(N2CCC(N3CCN(C)CC3)CC2)ccc1Nc1ncc(Cl)c(Nc2ccccc2S(=O)(=O)C(C)C)n1 [NVP-TAE684] (first compound 0.1 µM, partner dose 0.08 µM) | 110
9 | Nc1nc(F)nc2c1ncn2[C@@H]1O[C@H](CO)[C@@H](O)[C@@H]1O [fludarabine] + COc1cc2c(Oc3ccc4[nH]c(C)cc4c3F)ncnc2cc1OCCCN1CCCC1 [cediranib] (first compound 0.2 µM, partner dose 0.4 µM) | 111
10 | CO[C@H]1C[C@@H]2CC[C@@H](C)[C@@](O)(O2)C(=O)C(=O)N2CCCC[C@H]2C(=O)O[C@H]([C@H](C)C[C@@H]2CC[C@@H](OCCO)[C@H](OC)C2)CC(=O)[C@H](C)/C=C(\C)[C@@H](O)[C@@H](OC)C(=O)[C@H](C)C[C@H](C)/C=C/C=C/C=C/1C [everolimus] + COc1ccc(Cl)c(Nc2nc3ccccc3nc2NS(=O)(=O)c2cccc(NC(=O)C(C)(C)N)c2)c1 [XL147] (first compound 0.02 µM, partner dose 0.8 µM) | 83.7
11 | Nc1ccn([C@@H]2O[C@H](CO)[C@@H](O)C2(F)F)c(=O)n1 [gemcitabine] + COc1cc2ncnc(Nc3ccc(Oc4ccccc4)cc3)c2cc1OC [SrcI1] (first compound 0.0004 µM, partner dose 2 µM) | 79.3
12 | CC(=O)O[C@@]12CO[C@@H]1C[C@H](O)[C@@]1(C)C(=O)[C@H](O)C3=C(C)[C@@H](OC(=O)[C@H](O)[C@@H](NC(=O)OC(C)(C)C)c4ccccc4)C[C@@](O)([C@@H](OC(=O)c4ccccc4)[C@H]21)C3(C)C [Docetaxel] + O=S(=O)(c1ccccc1)N(CC(F)(F)F)c1ccc(C(O)(C(F)(F)F)C(F)(F)F)cc1 [T0901317] (first compound 0.0001 µM, partner dose 1.4 µM) | 67.3
13 | CO[C@H]1C[C@@H]2CC[C@@H](C)[C@@](O)(O2)C(=O)C(=O)N2CCCC[C@H]2C(=O)O[C@H]([C@H](C)C[C@@H]2CC[C@@H](OCCO)[C@H](OC)C2)CC(=O)[C@H](C)/C=C(\C)[C@@H](O)[C@@H](OC)C(=O)[C@H](C)C[C@H](C)/C=C/C=C/C=C/1C [everolimus] + O=C(O)C(=O)Nc1sc2c(c1C(=O)O)CCNC2 [TCS401] (first compound 0.02 µM, partner dose 1.66667 µM) | 56.6
14 | CO[C@H]1C[C@@H]2CC[C@@H](C)[C@@](O)(O2)C(=O)C(=O)N2CCCC[C@H]2C(=O)O[C@H]([C@H](C)C[C@@H]2CC[C@@H](OCCO)[C@H](OC)C2)CC(=O)[C@H](C)/C=C(\C)[C@@H](O)[C@@H](OC)C(=O)[C@H](C)C[C@H](C)/C=C/C=C/C=C/1C [everolimus] + CN(C)S(=O)(=O)c1ccc2c(c1)/C(=C/c1cc3c([nH]1)CCCC3)C(=O)N2 [SU6656] (first compound 0.02 µM, partner dose 0.4 µM) | 110
15 | CC(=O)c1c(C)c2cnc(Nc3ccc(N4CCNCC4)cn3)nc2n(C2CCCC2)c1=O [palbociclib] + O=C1NC(=O)/C(=C/c2ccc(-c3ccc(F)cc3O)o2)S1 [AS252424] (first compound 0.04 µM, partner dose 1 µM) | 52.3
16 | CC(=O)c1c(C)c2cnc(Nc3ccc(N4CCNCC4)cn3)nc2n(C2CCCC2)c1=O [palbociclib] + O=C(Nc1cccc(Cl)c1)Nc1ncc(CCNc2ncnc3ccsc23)s1 [SNS314] (first compound 0.04 µM, partner dose 0.0008 µM) | 66.5
17 | Nc1ncn([C@H]2C[C@H](O)[C@@H](CO)O2)c(=O)n1 [decitabine] + C[C@]1(c2nc3c(C(N)=O)cccc3[nH]2)CCCN1 [Veliparib] (first compound 0.1 µM, partner dose 1.4 µM) | 84.1
18 | CC(=O)c1c(C)c2cnc(Nc3ccc(N4CCNCC4)cn3)nc2n(C2CCCC2)c1=O [palbociclib] + Clc1ccc(Nc2nnc(Cc3ccncc3)c3ccccc23)cc1 [vatalanib] (first compound 0.04 µM, partner dose 2 µM) | 85.4
19 | Nc1nc(F)nc2c1ncn2[C@@H]1O[C@H](CO)[C@@H](O)[C@@H]1O [fludarabine] + COc1cc2ncnc(Nc3ccc(Oc4ccccc4)cc3)c2cc1OC [SrcI1] (first compound 0.2 µM, partner dose 2 µM) | 104
